Laboratory results reported in PubChem BioAssay AID1671188 (National Center for Advancing Translational Sciences (NCATS), 2021).
“And” between values parts separate entries of the source, which are not always exact repeats. Equal entries are not always repeated. Among all 100,000 compounds or so, about 250 (0.25%) were called active. The inconclusive results got no clear call from the source; some entries with a clear call stand among them for comparison. The call rests on the fitted dose curve; in most records, active means well fitted inhibition curve with a large enough effect; inconclusive means small, poorly fitted or top-dose-only effect; inactive means flat fitted curve, though single readings scatter. A potency beside an inconclusive call is a rough fit, not a confirmed value.

The molecules below were run against Alanine aminotransferase 2 (Homo sapiens) (UniProt Q8TD30) (assay: Primary qHTS assay for inhibitors of Glutamate pyruvate transaminase 2 (GPT2)). Conditions: Recombinant GPT2, coupled pyruvate oxidase/HRP Amplex Red fluorescence; activity change, negative = inhibition: at 57.7 µM (top of the series) unless noted; series mostly up to 57.7 µM.
UniProt Q8TD30, sequence (Q8TD30 whole entry, looked up): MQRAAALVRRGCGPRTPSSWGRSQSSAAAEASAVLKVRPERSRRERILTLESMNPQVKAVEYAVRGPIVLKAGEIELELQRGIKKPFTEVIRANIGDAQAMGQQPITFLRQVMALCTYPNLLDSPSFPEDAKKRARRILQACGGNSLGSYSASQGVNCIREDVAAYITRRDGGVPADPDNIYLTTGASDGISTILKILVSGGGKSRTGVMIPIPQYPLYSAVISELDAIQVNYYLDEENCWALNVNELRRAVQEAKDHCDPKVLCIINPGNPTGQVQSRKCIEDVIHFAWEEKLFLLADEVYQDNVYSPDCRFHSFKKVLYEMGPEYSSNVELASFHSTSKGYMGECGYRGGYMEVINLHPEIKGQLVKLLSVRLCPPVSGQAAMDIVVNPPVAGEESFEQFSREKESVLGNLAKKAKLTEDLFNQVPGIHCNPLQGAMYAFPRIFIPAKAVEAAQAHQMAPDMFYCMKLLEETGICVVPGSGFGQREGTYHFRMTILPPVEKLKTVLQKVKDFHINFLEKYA
In short: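 Recombinant GPT2 (10ng/uL) with 250uM a-KG and 2mM L-alanine, 30 min at room temperature, in HEPES pH 7.5 buffer. Pyruvate detected by pyruvate oxidase/HRP/Amplex Red fluorescence after 30 min in the dark; AOA (50uM) as positive control.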
Further: nearly all actives have a fitted effect of over 60% in size.
On the % scale 0 is the no-effect control and ±100 the full control effect; potency means the concentration at half of the fitted maximal effect; tags describe the fitted curve by direction and shape.

| Compound | activity change, negative = inhibition | Potency | outcome |
| --- | --- | --- | --- |
| COC[C@@H]1CN(S(=O)(=O)c2ccccc2F)C[C@H]1C(N)=O | inactive: 1.83% |  |  |
| O=C(CCc1conc1-c1ccc(F)cc1)NCc1cccc(Br)c1 |  | inconclusive: 2.51 µM [inhibitor, partial curve, poor fit] |  |
| COc1ccc(-c2nc(-c3c(C)noc3C)cc3c2cc(C)n3C)cn1 |  | inconclusive: 7.94 µM [inhibitor, full curve, poor fit] |  |
| O=C(CCC(=O)N1CCn2nc(Cc3ccccc3)cc2C1)NC1CCCC1 |  | inconclusive: 6.31 µM [inhibitor, single point] |  |
| O=C(C1CCN([S+](=O)([O-])c2cccc(C(F)(F)F)c2)CC1)N1CCC(N2CCOCC2=O)CC1 |  | inconclusive: 35.5 µM [inhibitor, single point] |  |
| COc1ccc(C(=O)N2CCC3(CC2)OC(=O)N(Cc2cccnc2)C3(C)c2ccccc2)cn1 (stereo unspecified) | inactive: 1.89% |  |  |
| O=C(NCc1nc(-c2ncccn2)no1)C1CCCN(Cc2ccco2)C1 (stereo unspecified) | inactive: -4.72% |  |  |
| O=C(Nc1ccc(F)cc1)c1cc2cccnn2n1 |  |  | inactive [at 88.5 µM] |
| N#Cc1ccc(S(=O)(=O)N2CCC[C@H]2C(=O)N2CCCCCCNC(=O)CC2)cc1 |  | inconclusive: 0.708 µM [inhibitor, full curve, poor fit] |  |
| COc1cc(N2CCC(N(C)C)CC2)ccc1Nc1ncc(Cl)c(Nc2ccccc2P(C)(C)=O)n1 |  | active: 3.55 µM and active: 1.93 µM |  |
| CCCN1CCCC2(CCN(C(=O)c3cc(CC)[nH]c(=O)c3)C2)C1=O (stereo unspecified) |  | inconclusive: 7.08 µM [inhibitor, single point] |  |
| O=C(c1ccc(F)cc1)N1CCC(C(=O)N2CCC(N3CCOCC3=O)CC2)CC1 |  |  | inactive |
| O=C(O)Cc1c[nH]c2ccc(O)cc12 |  | inconclusive: 8.91 µM [inhibitor, partial curve, poor fit] |  |
| Cc1ccc(-c2cc(N3CCC(CNC(=O)c4cc(C5CC5)[nH]n4)CC3)n[nH]2)cc1 |  | inconclusive: 31.6 µM [inhibitor, partial curve, poor fit] |  |
| COc1cccc(CNC(=O)c2cc(-c3ccncc3)cn2C)c1OC |  | inconclusive: 3.16 µM [inhibitor, single point] |  |
| O=C(NCc1nnc2c(-c3nc(C4CC4)no3)cccn12)c1c[nH]c2ccccc12 |  | inconclusive: 12.6 µM [inhibitor, partial curve, poor fit] |  |
| CCNC(=O)N1CCC[C@@H](O)[C@H](NC(=O)c2ccc(OCCOC)cc2)C1 |  | inconclusive: 35.5 µM [inhibitor, partial curve, poor fit] |  |
| CNC(=O)[C@@H]1C[C@H](Oc2cccnc2)CN1 |  | inconclusive: 0.708 µM [inhibitor, full curve, poor fit] |  |
| OC1(CN2CCN(c3ccc(F)c(Cl)c3)CC2)CCCNC1 (stereo unspecified) |  |  | inactive |
| CC1(C(=O)O)CCCC2(C)C3=CCC4CC3(CCC12)CC4CO (stereo unspecified) |  |  | inactive [at 27.3 µM] |
| COc1ncccc1-c1ncc2c(n1)OCCN(c1cccc(C(F)(F)F)c1)C2=O | inactive: -9.17% [at 88.5 µM] |  |  |

| Compound | activity change, negative = inhibition | Potency | outcome |
| --- | --- | --- | --- |
| O=C(N1CCC(Cc2nc(-c3ccc(F)cc3)no2)CC1)C1(c2ccccc2)CC1 |  |  | inactive |
| Cc1noc([C@@H](C)NC(=O)c2cc(C)n(C)n2)c1C(=O)O |  | inconclusive: 12.6 µM [inhibitor, partial curve, poor fit] |  |
| CCS(=O)(=O)NCc1cccnc1Oc1cccc(C(F)(F)F)c1 |  | inconclusive: 7.08 µM [inhibitor, single point] |  |
| COC1CC(=O)C23C(=O)NC(CC(C)C)C2C(C)C(C)=CC3/C=C(\C)CCC(O)C1O (stereo unspecified) |  | inconclusive: 3.98 µM [inhibitor, single point] |  |
| O=C(Nc1ccc(Cl)cc1Cl)N1CCc2[nH]c3ccc(F)cc3c2C1 |  | inconclusive: 7.94 µM [inhibitor, full curve, poor fit] |  |
| COc1ccc(C(=O)NC2CCCN(c3cc(-c4ccccc4)[nH]n3)C2)cc1F (stereo unspecified) |  | inconclusive: 39.8 µM [inhibitor, single point] |  |
| CC1=C[C@@H](CN2CCN(CCO)CC2)[C@H](C(C)C)C[C@H]1Cc1nnc(-c2ccncc2)o1 |  | inconclusive: 0.794 µM [inhibitor, full curve, poor fit] |  |
| COC(=O)C1=C(C)NC(C)=C(C(=O)O[C@@H]2CCCN(Cc3ccccc3)C2)[C@@H]1c1cccc([N+](=O)[O-])c1 |  | inconclusive: 17.8 µM [inhibitor, partial curve, poor fit] |  |
| O=[S+]([O-])(Nc1ccccc1)c1ccc2c(c1)OCCN(Cc1nccs1)C2 |  | inconclusive: 56.2 µM [inhibitor, single point] |  |
| C=CCN1CC2(CCC1=O)CCN(C(=O)C1CCc3ccccc31)CC2 (stereo unspecified) |  | inconclusive: 7.08 µM [inhibitor, single point] |  |
| CCCN1Cc2ccccc2NC(=O)C12CCNC2 (stereo unspecified) |  |  | inactive |
| Cc1nn2c(c1-c1ccccc1-c1ccccc1)N(C(=O)C1CCOCC1)CCC2 | inactive: 0.126% [at 88.5 µM] |  |  |
| CNC(=O)Nc1ccc(C)n(CC(=O)N2CCN(c3cc(C)ccc3C)CC2)c1=O |  | inconclusive: 39.8 µM [inhibitor, single point] |  |
| O=S(=O)(c1ccccc1C(F)(F)F)N1CC(c2nc(-c3ccncc3)no2)C1 |  | inconclusive: 6.31 µM [inhibitor, single point] |  |
| c1ccc(COc2ccc(CN3CCSCC3)cc2)nc1 | inactive: 2.22% |  |  |
| Cn1cccc1CN1CCn2c(nn(-c3cccc(Cl)c3)c2=O)C1 |  | inconclusive: 44.7 µM [inhibitor, single point] |  |
| NC/C=C/C(=O)O |  | inconclusive: 3.98 µM [inhibitor, single point] and inconclusive: 35.5 µM [inhibitor, single point] |  |
| CN(CCc1ccccn1)[C@H]1[C@@H]2OC[C@@H](O2)[C@@H](NC(=O)Nc2ccc(F)cc2)[C@@H]1O |  | inconclusive: 56.2 µM [inhibitor, single point] |  |
| Cc1noc(C)c1-c1cc2c(cc(C)n2C)c(-c2ccccc2)n1 |  | inconclusive: 6.31 µM [inhibitor, full curve, poor fit] |  |
| C/C=C(/C)C(=O)O[C@H]1[C@H](OC(=O)/C(C)=C\C)[C@@]23C(CC1(C)C)[C@]1(CCC4[C@@]5(C)CC[C@H](O[C@@H]6O[C@H](C(=O)O)[C@@H](O)[C@H](O[C@@H]7O[C@H](CO)[C@H](O)[C@H](O)[C@H]7O[C@@H]7O[C@@H](C)[C@H](O)[C@@H](O)[C@H]7O[C@@H]7OC[C@@H](O)[C@H](O)[C@H]7O)[C@H]6O[C@@H]6O[C@H](CO)[C@H](O)[C@H](O)[C@H]6O)C(C)(C)C5CC[C@@]4(C)[C@]1(C)C[C@H]2O)O[C@H]3O (stereo partly specified) |  |  | inactive [at 11.5 µM] |
